Assay results reported in paper PMC6323126.
Positions count from the first letter of the chain named. These are yes or no findings as the source states them, for the method shown. Binding seen in cells or lysates may run through a third protein. Sequences can lack the tags named with a protein.

Key:
Assay in all cases: co-IP; HEK293FT cells transfected with tagged plasmids, lysed 24 h later in RIPA buffer; immunoprecipitation with indicated antibodies and Protein A/G beads; immunoblot
[1] = target: T1, Flag-tagged STRN3 R176A/E185A (human) (UniProt Q13033)
T1 sequence: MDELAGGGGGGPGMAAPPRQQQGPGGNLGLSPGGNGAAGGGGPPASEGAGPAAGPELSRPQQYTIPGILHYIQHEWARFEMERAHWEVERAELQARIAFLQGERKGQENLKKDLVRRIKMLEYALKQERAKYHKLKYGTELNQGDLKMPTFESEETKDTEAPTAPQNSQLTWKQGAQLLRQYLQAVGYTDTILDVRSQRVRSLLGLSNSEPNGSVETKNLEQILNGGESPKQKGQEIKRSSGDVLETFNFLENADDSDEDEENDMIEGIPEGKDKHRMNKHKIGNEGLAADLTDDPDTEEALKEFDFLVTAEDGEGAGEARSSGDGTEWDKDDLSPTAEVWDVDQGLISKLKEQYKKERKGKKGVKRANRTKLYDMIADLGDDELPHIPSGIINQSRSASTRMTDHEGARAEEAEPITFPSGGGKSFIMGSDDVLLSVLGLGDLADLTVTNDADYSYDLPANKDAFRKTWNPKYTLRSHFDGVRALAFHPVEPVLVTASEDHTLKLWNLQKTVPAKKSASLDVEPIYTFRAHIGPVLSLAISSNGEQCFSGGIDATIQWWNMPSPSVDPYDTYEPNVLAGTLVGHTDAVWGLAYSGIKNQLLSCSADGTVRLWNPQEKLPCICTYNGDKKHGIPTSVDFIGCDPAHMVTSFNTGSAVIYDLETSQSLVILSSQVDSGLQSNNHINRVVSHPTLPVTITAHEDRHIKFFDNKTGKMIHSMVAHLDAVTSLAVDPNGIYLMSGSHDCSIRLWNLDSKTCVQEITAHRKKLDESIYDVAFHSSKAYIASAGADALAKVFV

[2] = target: T2, Flag-tagged STRN3 L179D/V186D (human) (UniProt Q13033)
T2 sequence: T1 sequence with A176R, L179D, A185E, V186D

[3] = target: T3, Flag-tagged SLMAP 4LD (L182D/L186D/L189D/L193D) (human) (UniProt Q14BN4)
T3 sequence: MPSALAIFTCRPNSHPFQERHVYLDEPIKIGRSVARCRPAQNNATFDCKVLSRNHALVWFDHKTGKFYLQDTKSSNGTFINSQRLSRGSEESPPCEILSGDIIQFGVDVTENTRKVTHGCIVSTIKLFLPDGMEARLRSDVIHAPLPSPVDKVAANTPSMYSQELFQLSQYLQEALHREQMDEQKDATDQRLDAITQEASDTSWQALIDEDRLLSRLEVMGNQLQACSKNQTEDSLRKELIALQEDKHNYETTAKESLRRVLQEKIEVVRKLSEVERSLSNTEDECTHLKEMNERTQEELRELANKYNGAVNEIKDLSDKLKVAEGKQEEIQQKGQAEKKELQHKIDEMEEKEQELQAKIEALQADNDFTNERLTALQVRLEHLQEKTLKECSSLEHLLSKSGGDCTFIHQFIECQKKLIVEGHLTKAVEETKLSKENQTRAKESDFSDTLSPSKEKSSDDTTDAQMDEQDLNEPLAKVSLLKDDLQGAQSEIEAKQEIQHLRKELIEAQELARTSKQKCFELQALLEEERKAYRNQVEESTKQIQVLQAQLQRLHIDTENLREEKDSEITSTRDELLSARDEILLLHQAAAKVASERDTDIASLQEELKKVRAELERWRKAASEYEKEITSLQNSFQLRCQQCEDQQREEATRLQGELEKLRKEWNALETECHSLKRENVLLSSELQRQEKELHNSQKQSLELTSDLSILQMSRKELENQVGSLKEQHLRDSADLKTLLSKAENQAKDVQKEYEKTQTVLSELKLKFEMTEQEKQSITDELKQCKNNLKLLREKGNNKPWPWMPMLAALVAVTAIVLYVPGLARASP

Measured: binding

B1: HA-tagged SIKE1 (wildtype, in cells) (protein, UniProt Q9BRV8 1-207)
chain: MSCTIEKILTDAKTLLERLREHDAAAESLVDQSAALHRRVAAMREAGTALPDQYQEDASDMKDMSKYKPHILLSQENTQIRDLQQENRELWISLEEHQDALELIMSKYRKQMLQLMVAKKAVDAEPVLKAHQSHSAEIESQIDRICEMGEVMRKAVQVDDDQFCKIQEKLAQLELENKELRELLSISSESLQARKENSMDTASQAIK
no binding: all assays above
